This test has as its target GRB2 (endogenous complexes from cell lysate), P62993. The test is described as follows: GRB2 complex binding differential signal (pY peptide minus Ala control peptide) (fluorescence intensity units); higher = stronger GRB2 complex binding. As for the experimental part:
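In situ synthesized µParaflo PepArray of 6-mer peptides, each starting with an N-terminal phosphotyrosine (lowercase 'y' = pY) followed by 5 native residues. Peptides are tethered to glass through a long linker. Chips were incubated overnight at 4°C with total cell lysate (1 mg in 1 mL) from MCF10A, MCF7, T47D or MDA-MB-231 cells. Bound endogenous GRB2-containing complexes were detected with rabbit anti-GRB2 and an Alexa647 secondary antibody. Signals are background-subtracted and averaged over replicate spots, then the matched Ala-substituted control peptide signal is subtracted (differential signal).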

± gives the uncertainty stated by the source. The list shows a part of the results. A small y stands for phosphotyrosine.

33 molecules from the supplement of paper PMC3694890 can be followed below.
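Note: phosphopeptide probes on the chip at 1–4 µM, lysate proteins bound in 20 mM Tris pH 7.0 buffer with 140 mM NaCl, 1% Triton X-100 and 5% glycerol.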

B1: ERBB2_1222/A1 (peptide)
chain: yWDQDP
For B1, the “GRB2 complex binding differential signal” value (MCF7) was -160 ± 350, the “GRB2 complex binding differential signal” value (MCF10A) was 2.93 ± 180, the “GRB2 complex binding differential signal” value (MDA-MB-231) was 390 ± 260 and the “GRB2 complex binding differential signal” value (T47D) was -3.95 ± 1600.

B2: FES_713/A1 (peptide)
chain: yAASGG
Regarding B2, the “GRB2 complex binding differential signal” value is, setting by setting: (MCF7) 721 ± 240; (MCF10A) 1170 ± 250; (MDA-MB-231) 694 ± 330; (T47D) 1700 ± 1100.

B3: ERBB4_1162/A1 (peptide)
chain: yLNPVE
For the molecule B3, the “GRB2 complex binding differential signal” value reads like this: (MCF7) 6520 ± 850; (MCF10A) 4730 ± 1200; (MDA-MB-231) 3420 ± 990; (T47D) 7070 ± 2000.

B4: ERBB2_1112/A1 (peptide)
chain: ySEDPT
With B4, the “GRB2 complex binding differential signal” value runs as follows: (MCF7) 846 ± 740; (MCF10A) 1030 ± 430; (MDA-MB-231) 849 ± 280; (T47D) 416 ± 1100.

B5: ERBB4_1188/A1 (peptide)
chain: yHNASN
B5: the “GRB2 complex binding differential signal” value (MCF7) stood at 11500 ± 2600, the “GRB2 complex binding differential signal” value (MCF10A) amounted to 6840 ± 1700, the “GRB2 complex binding differential signal” value (MDA-MB-231) is 1620 ± 530 and the “GRB2 complex binding differential signal” value (T47D) amounted to 6720 ± 1900.

B6: ERBB2_1139/A1 (peptide)
chain: yVNQPD
In the case of B6, the “GRB2 complex binding differential signal” value came out at 51000 ± 7800 (MCF7), 49100 ± 5300 (MCF10A), 13700 ± 2400 (MDA-MB-231) and 19400 ± 8000 (T47D).

B7: ERBB2_735/A1 (peptide)
chain: yKGIWI
Take B7: the “GRB2 complex binding differential signal” value is, setting by setting: (MCF7) 378 ± 160; (MCF10A) 90 ± 180; (MDA-MB-231) 516 ± 390; (T47D) 1370 ± 1000.

B8: ABL2_718/A1 (peptide)
chain: yGGSFA
For B8, the “GRB2 complex binding differential signal” value (MCF7) worked out at 29.7 ± 880, the “GRB2 complex binding differential signal” value (MCF10A) turned out to be 11.1 ± 280, the “GRB2 complex binding differential signal” value (MDA-MB-231) came to 488 ± 820 and the “GRB2 complex binding differential signal” value (T47D) came out at 2410 ± 1700.

B9: ABL2_683/A1 (peptide)
chain: yELTGN
Regarding B9, the “GRB2 complex binding differential signal” value by setting is: (MCF7) 1340 ± 650; (MCF10A) 889 ± 380; (MDA-MB-231) 1010 ± 330; (T47D) 1180 ± 1200.

B10: ERBB4_1242/A1 (peptide)
chain: yWNHSL
Turning to B10, the “GRB2 complex binding differential signal” value (MCF7) was 1120 ± 500, the “GRB2 complex binding differential signal” value (MCF10A) amounted to 374 ± 180, the “GRB2 complex binding differential signal” value (MDA-MB-231) was found to be 534 ± 330 and the “GRB2 complex binding differential signal” value (T47D) was 3140 ± 1200.

B11: ERBB3_1199/A1 (peptide)
chain: yMNRRR
Take B11: the “GRB2 complex binding differential signal” value by setting is: (MCF7) 17300 ± 3600; (MCF10A) 6870 ± 1300; (MDA-MB-231) 3320 ± 460; (T47D) 5420 ± 2000.

B12: ERBB3_1262/A1 (peptide)
chain: yMNRQR
As for B12, the “GRB2 complex binding differential signal” value by setting is: (MCF7) 10000 ± 1100; (MCF10A) 8610 ± 2100; (MDA-MB-231) 3730 ± 750; (T47D) 8860 ± 2100.

B13: ERBB2_877/A1 (peptide)
chain: yHADGG
With B13, the “GRB2 complex binding differential signal” value (MCF7) stood at 840 ± 790, the “GRB2 complex binding differential signal” value (MCF10A) worked out at 1090 ± 440, the “GRB2 complex binding differential signal” value (MDA-MB-231) amounted to 339 ± 390 and the “GRB2 complex binding differential signal” value (T47D) was found to be 18.2 ± 1100.

B14: ERBB3_1328/A1 (peptide)
chain: yWHSRL
In the case of B14, the “GRB2 complex binding differential signal” value was 8.56 ± 160 (MCF7), 11.5 ± 140 (MCF10A), 88.1 ± 220 (MDA-MB-231) and 408 ± 1200 (T47D).

B15: EPHB2_780/A1 (peptide)
chain: yDTSDP
As for B15, the “GRB2 complex binding differential signal” value was determined as 975 ± 260 (MCF7), 239 ± 350 (MCF10A), 821 ± 510 (MDA-MB-231) and 153 ± 970 (T47D).

B16: ERBB3_680/A1 (peptide)
chain: yLERGE
Regarding B16, the “GRB2 complex binding differential signal” value is 273 ± 330 (MCF7), 259 ± 280 (MCF10A), 207 ± 290 (MDA-MB-231) and 87.4 ± 1100 (T47D).

B17: ERBB2_1196/A1 (peptide)
chain: yLTPQG
As for B17, the “GRB2 complex binding differential signal” value by setting is: (MCF7) 12100 ± 3600; (MCF10A) 7280 ± 1100; (MDA-MB-231) 2360 ± 510; (T47D) 2010 ± 1400.

B18: FER_714/A1 (peptide)
chain: ySSSGL
Turning to B18, the “GRB2 complex binding differential signal” value runs as follows: (MCF7) 910 ± 630; (MCF10A) 1080 ± 350; (MDA-MB-231) 879 ± 350; (T47D) 1550 ± 1100.

B19: ERBB2_1248/A1 (peptide)
chain: yLGLDV
As to B19, the “GRB2 complex binding differential signal” value was determined as 50.1 ± 330 (MCF7), 200 ± 200 (MCF10A), 671 ± 320 (MDA-MB-231) and 226 ± 890 (T47D).

B20: ERBB4_733/A1 (peptide)
chain: yKGIWV
On to B20, for which the “GRB2 complex binding differential signal” value (MCF7) came out at 214 ± 350, the “GRB2 complex binding differential signal” value (MCF10A) came out at 203 ± 300, the “GRB2 complex binding differential signal” value (MDA-MB-231) came to 562 ± 280 and the “GRB2 complex binding differential signal” value (T47D) amounted to 1870 ± 1600.

B21: FER_402/A1 (peptide)
chain: yEEDAR
In the case of B21, the “GRB2 complex binding differential signal” value reads like this: (MCF7) 858 ± 290; (MCF10A) 736 ± 230; (MDA-MB-231) 1090 ± 330; (T47D) 2480 ± 1500.

B22: ERBB4_1258/A1 (peptide)
chain: yLQEYS
Turning to B22, the “GRB2 complex binding differential signal” value reads like this: (MCF7) 115 ± 250; (MCF10A) 205 ± 140; (MDA-MB-231) 824 ± 370; (T47D) 531 ± 2100.

B23: ERBB2_1005/A1 (peptide)
chain: yRSLLE
Regarding B23, the “GRB2 complex binding differential signal” value was 510 ± 460 (MCF7), 422 ± 290 (MCF10A), 1110 ± 520 (MDA-MB-231) and 1280 ± 1200 (T47D).

B24: ABL2_303/A1 (peptide)
chain: yVGVWK
As to B24, the “GRB2 complex binding differential signal” value (MCF7) is 248 ± 180, the “GRB2 complex binding differential signal” value (MCF10A) was found to be 199 ± 280, the “GRB2 complex binding differential signal” value (MDA-MB-231) is 1270 ± 460 and the “GRB2 complex binding differential signal” value (T47D) is 3400 ± 1200.

B25: ERBB3_1289/A1 (peptide)
chain: yEEMRA
Regarding B25, the “GRB2 complex binding differential signal” value runs as follows: (MCF7) 1010 ± 270; (MCF10A) 689 ± 310; (MDA-MB-231) 1150 ± 360; (T47D) 1590 ± 1600.

B26: ERBB2_1023/A1 (peptide)
chain: yLVPQQ
For B26, the “GRB2 complex binding differential signal” value is, setting by setting: (MCF7) 7650 ± 2200; (MCF10A) 2720 ± 1500; (MDA-MB-231) 1870 ± 410; (T47D) 966 ± 1100.

B27: ERBB3_1276/A1 (peptide)
chain: yAAMGA
For B27, the “GRB2 complex binding differential signal” value (MCF7) was determined as 1680 ± 310, the “GRB2 complex binding differential signal” value (MCF10A) was 1170 ± 200, the “GRB2 complex binding differential signal” value (MDA-MB-231) worked out at 1050 ± 330 and the “GRB2 complex binding differential signal” value (T47D) is 2150 ± 1300.

B28: FES_261/A1 (peptide)
chain: yQGFLR
For the molecule B28, the “GRB2 complex binding differential signal” value reads like this: (MCF7) 883 ± 300; (MCF10A) 459 ± 180; (MDA-MB-231) 601 ± 260; (T47D) 2220 ± 1400.

B29: EPHB3_600/A1 (peptide)
chain: yIAPGM
In the case of B29, the “GRB2 complex binding differential signal” value amounted to 22000 ± 2100 (MCF7), 7240 ± 2200 (MCF10A), 2450 ± 660 (MDA-MB-231) and 3690 ± 1300 (T47D).

B30: ERBB2_1221/A1 (peptide)
chain: yYWDQD
B30: the “GRB2 complex binding differential signal” value is 135 ± 490 (MCF7), -144 ± 390 (MCF10A), 287 ± 260 (MDA-MB-231) and -31.2 ± 820 (T47D).

B31: FES_614/A1 (peptide)
chain: ySHPNI
As for B31, the “GRB2 complex binding differential signal” value reads like this: (MCF7) 8680 ± 3400; (MCF10A) 4230 ± 1100; (MDA-MB-231) 2470 ± 560; (T47D) 3060 ± 1300.

B32: ERBB4_1056/A1 (peptide)
chain: yTPMSG
As for B32, the “GRB2 complex binding differential signal” value by setting is: (MCF7) -1660 ± 2100; (MCF10A) 617 ± 500; (MDA-MB-231) 307 ± 300; (T47D) 1270 ± 1400.

B33: ERBB4_1284/A1 (peptide)
chain: yLSEFS
B33: the “GRB2 complex binding differential signal” value is -84.1 ± 270 (MCF7), 100 ± 250 (MCF10A), 464 ± 350 (MDA-MB-231) and 26.1 ± 1300 (T47D).
